From PubChem BioAssay AID662 (National Center for Advancing Translational Sciences (NCATS), 2007)
About 1,800 (2.5%) of roughly 71,000 compounds were called active. The shares of active, inactive and inconclusive entries below differ from those in the screen. The call rests on the fitted dose curve; in most records, active means well fitted activation curve with a large enough effect in the signal ratio, with a control signal flat (not every such curve was filed as active); inconclusive means small, poorly fitted or top-dose-only effect, or effect the other way, or a change in a side signal; inactive means flat fitted curve, though single readings scatter; the % refers to the signal ratio. A potency beside an inconclusive call is a rough fit, not a confirmed value.

Assay: Cell signaling CRE-BLA (Fsk stim); on activity change, negative = inhibition: % of control where 0% means no effect
Settings: CHO CRE-bla reporter (cAMP response element driving beta-lactamase), forskolin EC10, beta-lactamase ratio; activity change, negative = inhibition: at 38.2 µM (top of the series) unless noted
Summary of the method: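 The 460nm/530nm emission ratio after CCF4 loading defined %Activity, from which AC50 values were obtained. CRE-bla CHO cells received compound dilution series together with an EC10 level of NKH 477 for 3 hours at 37 degrees Celsius.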
Potency means the concentration at half of the fitted maximal effect; tags describe the fitted curve by direction and shape.

Structure (SMILES)	Potency	activity change, negative = inhibition
CC(=O)Nc1nc2n(n1)C(c1ccc(F)cc1)C=C(c1ccccc1)N2 (centres undefined)	inconclusive: 10 µM [falling, partial curve]	
O=C(NCCCn1ccnc1)NC(C(F)(F)F)C(F)(F)F		inactive
O=C(Nc1ccc(C(F)(F)F)cc1Cl)c1ccc(Cn2cc(Br)cn2)o1	inconclusive: 12.6 µM [rising, single point]	
CCS(=O)(=O)N1CCN(c2cccc(C)c2C)CC1	inconclusive: 0.501 µM [rising, full curve, poor fit]	
CCC(=O)N1CCN(c2ccc(NC(=O)c3cc4ccccc4o3)cc2Cl)CC1	inconclusive: 25.1 µM [falling, single point]	
Cc1cccc2cc(C(c3nnnn3CC3CCCO3)N3CCOCC3)c(=O)[nH]c12 (centres undefined)		inactive
COC(=O)Nc1nnc(-c2ccncc2)s1		inactive
Cc1cc(OCc2nn[nH]n2)c2c(C)c(Cc3ccccc3)c(=O)oc2c1		inactive
Cc1ccc(C(=O)Nc2ccccc2C(=O)NC(CC(=O)O)C(=O)O)cc1 (centres undefined)		inconclusive: -7.59%
Cc1c(C(=O)NN2CCOCC2)nn(-c2ccc(Cl)cc2Cl)c1-c1ccc(I)cc1		inactive
COCCCNC(=O)c1cc2c(-c3ccc(Cl)cc3)nn(C)c2s1	active: 3.16 µM	
CCCCCCCCCCCCCCCCCCOC[C@@H](COP(=O)([O-])OCC[N+](C)(C)C)OC		inactive
c1ccc2c(c1)nc1sccn12		inactive
O=C(Nc1cc(C(F)(F)F)ccc1N1CCOCC1)c1n[nH]c(=O)c2ccccc12		inconclusive: 21%
c1ccc(Cc2nnc3sc(-c4ccc5c(c4)OCCO5)nn23)cc1	inconclusive: 12.6 µM [rising, partial curve]	
COc1cc(-c2nnc3sc(Cc4ccccc4)nn23)cc(OC)c1OC	active: 10 µM	
COc1ccc(-c2cc(=O)c3ccc(O)cc3o2)cc1		inactive
CCn1c(SCC(=O)C(C)(C)C)nnc1-c1cccnc1		inconclusive: 5.57%
O=C(O)C1C2C=CC(C2)C1C(=O)OCC1CCCO1 (centres undefined)	inconclusive: 0.02 µM [rising, full curve]	
Cc1nc(-n2nnc3ccccc32)c2c3c(sc2n1)CCCC3	inconclusive: 3.16 µM [falling, single point]	
N[C@H](Cc1ccc(Cl)cc1)C(=O)O		inactive
CCNc1ncc2nc(-c3cccc(C#N)c3)c(=O)n(CCC#N)c2n1	active: 2.51 µM	
COC(=O)C1CCN(C(=O)c2sc3nc(-c4ccccc4)cn3c2C)CC1		inconclusive: 22.7%
CN(C)/C=N/c1c(C#N)cnn1-c1ncnc2sc(-c3ccccc3)cc12		inactive
